Test results published in the supplement of paper PMC11348887.
Where a name gives a salt, the structure may show the parent alone. Some of the results follow. Cut-off read from the data, not from the text of the source: active = -2 or less and inactive = the rest. Most values come without repeats; read them as rough.

system: hPSC-derived cortical neurons (WA09); experiment: nuclei number (viability) z-score; higher = more surviving cells; settings: 5 µM; treatment: days 7-14 after plating, readout day 21
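Note: nuclei counted from DAPI counterstain by automated high-content image analysis, four fields per well at ×20 in 384-well plates, with sequential b-score then z-score normalization.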

| Structure (SMILES) | nuclei number (z-score) |
| --- | --- |
| O=C(CCNNC(=O)c1ccncc1)NCc1ccccc1 [Nialamide] | inactive: -0.355 |
| Cc1cnc(-c2ccccc2C(C)C)nc1NCc1ccc(-n2ccnn2)cc1 | inactive: -0.407 |
| CNc1cc(-c2cccc(Cl)c2Cl)nc(N)n1 | inactive: 0.125 |
| CCC(C)(Oc1ccc(C2(c3ccc(OC(C)(CC)C(=O)O)cc3)CCCCC2)cc1)C(=O)O (centres undefined) [Clinofibrate] | inactive: 0.299 |
| C[C@@H](O[C@H]1OCCN(Cc2nn(P(=O)(O)O)c(=O)[nH]2)[C@H]1c1ccc(F)cc1)c1cc(C(F)(F)F)cc(C(F)(F)F)c1 [Fosaprepitant dimeglumine salt] | inactive: -0.538 |
| c1nc2c(NC3CCCCC3)nc(Nc3ccc(N4CCOCC4)cc3)nc2[nH]1 [Reversine] | inactive: 0.0722 |
| COc1cc2nccc(Oc3ccc(NC(=O)NC4CC4)c(Cl)c3)c2cc1C(N)=O [Lenvatinib (E7080)] | inactive: 0.366 |
| COc1nc(OCc2cccc(-c3ccccc3)c2C)ccc1CNCCNC(C)=O [PD-1/PD-L1 inhibitor 2] | active: -2.97 |
| CN1CCc2c(c3ccccc3n2Cc2ccc(C(=O)NO)cc2)C1 [Tubastatin A HCl] | inactive: 1.26 |
| CN1CCc2c(c3ccccc3n2Cc2ccc(C(=O)NO)cc2)C1 [Tubastatin A] | inactive: -0.234 |
| O=c1c(-n2ccnn2)c[nH]n1-c1cc(N2CCOCC2)ncn1 [Molidustat (BAY 85-3934)] | inactive: -0.557 |
| CC[C@@H]1C(=O)OC[C@@H]1Cc1cncn1C [Pilocarpine HCl] | inactive: 2.72 |
| Cc1cnc(-c2cc(N3CCN(C(=O)CCS(C)(=O)=O)CC3)ncc2Cl)c(C)c1 | inactive: -0.721 |
| CC(C)(CO)c1cc2cc(NC(=O)C3(c4ccc5c(c4)OC(F)(F)O5)CC3)c(F)cc2n1C[C@@H](O)CO | inactive: 1.46 |
| Cc1c(CN2CCN(C(=O)[C@H](C)O)CC2)sc2c(N3CCOCC3)nc(-c3cnc(N)nc3)nc12 | active: -2.7 |
| N#CCNC(=O)c1ccc(-c2ccnc(Nc3ccc(N4CCOCC4)cc3)n2)cc1 | inactive: 0.598 |
| OCc1c[nH]c2ccccc12 [Indole-3-carbinol] | inactive: 0.665 |
| CS(=O)(=O)OCCCCOS(C)(=O)=O [Busulfan] | inactive: -0.832 |
| Cc1c(NC(=O)c2cccnc2)c(=O)n(-c2ccccc2)n1C [Nifenazone] | inactive: -0.503 |
| N#Cc1ccc(-c2csc(NN=C3CCCC3)n2)cc1 [Remodelin] | inactive: 0.145 |
| O=C(/C=C/c1ccc(O)cc1)c1ccc(O)cc1O [Isoliquiritigenin] | inactive: 3.44 |
| CC(C)NC[C@@H](O)COc1ccc(CC(N)=O)cc1 [(R)-(+)-Atenolol HCl] | inactive: -0.595 |

| Structure (SMILES) | nuclei number (z-score) |
| --- | --- |
| Cc1ncc(-c2ccnc(Nc3ccc(S(C)(=O)=O)cc3)n2)n1C(C)C | inactive: -1.93 |
| Cc1ccc2nc(CN(CCN(Cc3nc4ccc(C)cc4[nH]3)Cc3nc4ccc(C)cc4[nH]3)Cc3nc4ccc(C)cc4[nH]3)[nH]c2c1 | active: -5.2 |
| C=C1CC[C@@H]2[C@](C)(CO)[C@H](O)CC[C@@]2(C)[C@@H]1C/C=C1/C(=O)OC[C@H]1O [Andrographolide] | inactive: 0.168 |
| CC(=O)NS(=O)(=O)c1ccc(N)cc1 [Sulfacetamide Sodium] | inactive: 0.395 |
| Cc1cn([C@H]2C=C[C@@H](CO)O2)c(=O)[nH]c1=O [Stavudine (d4T)] | inactive: 0.598 |
| CC[C@H](C)[C@@H]1NC(=O)[C@H](Cc2ccc(O)cc2)NC(=O)[C@@H](N)CSSC[C@@H](C(=O)N2CCC[C@H]2C(=O)N[C@@H](CC(C)C)C(=O)NCC(N)=O)NC(=O)[C@H](CC(N)=O)NC(=O)[C@H](CCC(N)=O)NC1=O [Oxytocin (Syntocinon)] | inactive: 0.713 |
| CN1C(CCl)Nc2cc(Cl)c(S(N)(=O)=O)cc2S1(=O)=O (centres undefined) [Methyclothiazide] | active: -5.64 |
| C=CC1=C(C(=O)O)N2C(=O)[C@@H](NC(=O)/C(=N\O)c3csc(N)n3)[C@H]2SC1 [Cefdinir] | inactive: 1.54 |
| OCc1ccccc1O[C@@H]1O[C@H](CO)[C@@H](O)[C@H](O)[C@H]1O [Salicin] | inactive: 0.411 |
| COc1cccc2c1C(=O)c1c(O)c3c(c(O)c1C2=O)C[C@@](O)(C(C)=O)C[C@@H]3O[C@H]1C[C@H](N)[C@H](O)[C@H](C)O1 [Daunorubicin HCl] | active: -2.73 |
| CNC(=O)c1cc(Oc2ccc(NC(=O)Nc3ccc(Cl)c(C(F)(F)F)c3)cc2)ccn1 [Sorafenib] | inactive: 4.36 |
| CNC(=O)c1cc(Oc2ccc(NC(=O)Nc3ccc(Cl)c(C(F)(F)F)c3)cc2)ccn1 [Sorafenib Tosylate] | inactive: 0.865 |
| CNC(=O)c1ccccc1Nc1cc(Nc2ccc(N3CCOCC3)cc2OC)ncc1C(F)(F)F | inactive: -0.815 |
| CC/C(=C(\c1ccc(O)cc1)c1ccc(OCCNC)cc1)c1ccccc1 [Endoxifen HCl] | active: -3.41 |
| CCn1cc(C(=O)O)c(=O)c2c(N)c(F)c(NC3CCCCC3)cc21 | inactive: 0.356 |
| Cc1ccc(S(=O)(=O)Cc2nc(-c3ccc(C(=O)NCc4cccnc4)cc3)oc2C)cc1 | active: -4.94 |
| CC(C)COc1ccc(CNC(=O)N(Cc2ccc(F)cc2)C2CCN(C)CC2)cc1 [Pimavanserin] | active: -6.42 |
| CN(c1ccccc1CNc1nc(Nc2ccc3c(c2)CC(=O)N3)ncc1C(F)(F)F)S(C)(=O)=O | inactive: -0.752 |
| O=c1oc2c(O)c(O)cc3c(=O)oc4c(O)c(O)cc1c4c23 [Ellagic acid] | inactive: 3.33 |
| CC(C=CC(=O)NO)=CC(C)C(=O)c1ccc(N(C)C)cc1 (centres undefined) [Trichostatin A (TSA)] | active: -3.15 |
| c1ccc2c(CC3=NCCN3)cccc2c1 [Naphazoline HCl] | inactive: -0.534 |
| CC(=O)OCC(=O)[C@@]12OC(C)(C)O[C@@H]1C[C@H]1[C@@H]3C[C@H](F)C4=CC(=O)C=C[C@]4(C)[C@@]3(F)[C@@H](O)C[C@@]12C [Fluocinonide] | inactive: -0.205 |
